Results published in article PMC4336329 (PLoS ONE, 2015).
Out of some 310,000 compounds screened, about 14,000 (4.5%) showed an effect of 50% or more. Effects have a minus sign here. Some of the results follow.
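Also: peak tail current of the secondary pulse compared with the same well before compound.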

What follows are molecules tested against human ether-à-go-go-related gene (hERG) potassium channel (human, UniProt Q12809) (assay: primary screen, population patch clamp on CHO cells stably expressing hERG).
human ether-à-go-go-related gene (hERG) potassium channel, sequence (Q12809 whole entry, looked up): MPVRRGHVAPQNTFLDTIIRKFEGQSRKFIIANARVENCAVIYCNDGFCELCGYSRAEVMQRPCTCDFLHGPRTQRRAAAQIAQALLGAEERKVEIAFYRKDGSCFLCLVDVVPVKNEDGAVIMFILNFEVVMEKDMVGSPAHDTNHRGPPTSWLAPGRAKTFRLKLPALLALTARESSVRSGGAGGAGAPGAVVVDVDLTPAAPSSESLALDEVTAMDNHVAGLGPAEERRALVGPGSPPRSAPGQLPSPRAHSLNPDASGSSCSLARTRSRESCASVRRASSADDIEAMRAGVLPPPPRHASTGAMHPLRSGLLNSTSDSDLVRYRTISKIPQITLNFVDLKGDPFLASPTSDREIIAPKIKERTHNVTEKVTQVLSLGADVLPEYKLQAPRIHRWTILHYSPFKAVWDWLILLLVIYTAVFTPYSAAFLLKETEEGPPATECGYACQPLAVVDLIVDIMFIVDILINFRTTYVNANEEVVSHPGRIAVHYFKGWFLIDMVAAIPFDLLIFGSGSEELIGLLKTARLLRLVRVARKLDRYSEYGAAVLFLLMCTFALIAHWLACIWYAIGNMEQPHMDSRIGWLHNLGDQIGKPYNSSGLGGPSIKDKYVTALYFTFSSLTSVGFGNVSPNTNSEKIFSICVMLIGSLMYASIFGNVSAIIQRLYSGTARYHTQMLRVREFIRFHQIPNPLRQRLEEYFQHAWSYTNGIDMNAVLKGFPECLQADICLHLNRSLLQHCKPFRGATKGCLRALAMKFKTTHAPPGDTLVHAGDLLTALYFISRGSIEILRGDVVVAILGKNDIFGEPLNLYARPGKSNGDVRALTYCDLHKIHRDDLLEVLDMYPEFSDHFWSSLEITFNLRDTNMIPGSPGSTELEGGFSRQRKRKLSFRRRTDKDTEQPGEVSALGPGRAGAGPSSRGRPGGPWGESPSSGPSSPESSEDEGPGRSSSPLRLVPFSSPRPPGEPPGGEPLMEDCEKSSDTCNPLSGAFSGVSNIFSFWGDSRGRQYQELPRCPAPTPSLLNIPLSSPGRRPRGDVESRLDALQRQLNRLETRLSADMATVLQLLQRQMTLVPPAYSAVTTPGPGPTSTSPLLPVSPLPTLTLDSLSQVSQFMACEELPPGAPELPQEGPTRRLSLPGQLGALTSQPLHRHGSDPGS
For `O=C(CN1C(=O)COc2ccc(S(=O)(=O)N3CCCC3)cc21)N1CCCC1`, the “hERG current change (%, negative = inhibition) at 10uM” value was 9.85%.
`CCOP(=O)(OCC)c1nc(-c2ccc(Cl)cc2)oc1NCc1ccccc1` was tested, and the “hERG current change (%, negative = inhibition) at 10uM” value was -10.7%.
`CC(C)CN(C(=O)C(c1ccccc1)c1ccccc1)c1c(N)n(CC(C)C)c(=O)[nH]c1=O` was tested, and the “hERG current change (%, negative = inhibition) at 10uM” value was -3.56%.
In the case of `CCOC(=O)c1ccc2nc3c(cc2c1)CCS3`, the “hERG current change (%, negative = inhibition) at 10uM” value is reported as 5.64%.
`O=C(O)c1ccc(-n2nc(-c3ccccc3)c3ccccc3c2=O)cc1` was tested, and the “hERG current change (%, negative = inhibition) at 10uM” value was 25.5%.
In the case of `CC1CCCC(n2c(=S)[nH]c3ccccc3c2=O)C1C` (centres unmarked), the “hERG current change (%, negative = inhibition) at 10uM” value is reported as 6.63%.
With `Cc1ccccc1NC(=O)CCS(=O)(=O)c1cccc2nonc12` the “hERG current change (%, negative = inhibition) at 10uM” value was 20.8%.
In the case of `O=C1c2ccccc2C(Nc2ccc(S(=O)(=O)N3CCCCCC3)cc2)N1Cc1ccco1` (centres unmarked), the “hERG current change (%, negative = inhibition) at 10uM” value is reported as -19.5%.
With `Cc1csc(SCC(=O)NC(=O)Cc2ccccc2)n1` the “hERG current change (%, negative = inhibition) at 10uM” value was 16.9%.
In the case of `O=[N+]([O-])c1cc(S(=O)(=O)Nc2cccc(Cl)c2)ccc1N/N=C/c1ccc(N2CCOCC2)cc1`, the “hERG current change (%, negative = inhibition) at 10uM” value is reported as -5.9%.
`CCc1nnc(NC(=O)CSc2nnc(COc3ccc(C)cc3)n2-c2ccccc2)s1` was tested, and the “hERG current change (%, negative = inhibition) at 10uM” value was -1.92%.
In the case of `CCNC(=O)N(CCOC)CC1CCCN(C2Cc3ccccc3C2)C1` (centres unmarked), the “hERG current change (%, negative = inhibition) at 10uM” value is reported as -22.9%.
`COc1cccc(N(CC(=O)N2CCN(C)CC2)S(=O)(=O)c2ccccc2)c1` was tested, and the “hERG current change (%, negative = inhibition) at 10uM” value was -7.6%.
With `C=CCN(C(=O)CN1CCCCC1)c1nc(-c2ccccc2)cs1` the “hERG current change (%, negative = inhibition) at 10uM” value was -7.36%.
`NC(=O)CCc1nc2cc(C(F)(F)F)ccc2n(Cc2ccccc2)c1=O` was tested, and the “hERG current change (%, negative = inhibition) at 10uM” value was -19.4%.
`O=C(C[N+]12CCC(CC1)C(O)C2)c1ccc(Br)cc1.[Br-]` (centres unmarked) was tested, and the “hERG current change (%, negative = inhibition) at 10uM” value was 1.74%.
`COc1cc(NC(=O)COc2cccc(OC)c2)cc(OC)c1` was tested, and the “hERG current change (%, negative = inhibition) at 10uM” value was -9.09%.
`Cc1ccccc1C(=O)O/N=C1\CCS(=O)(=O)c2sccc21` was tested, and the “hERG current change (%, negative = inhibition) at 10uM” value was 8.17%.
`COc1ccc(C(CNC(=O)Cc2ccccc2Cl)N2CCCCC2)cc1` (centres unmarked) was tested, and the “hERG current change (%, negative = inhibition) at 10uM” value was 23%.
In the case of `COc1ccc(CN(CC(=O)NCc2ccccc2)C(=O)CCC(=O)Nc2cc(C)ccn2)cc1`, the “hERG current change (%, negative = inhibition) at 10uM” value is reported as -17.2%.
In the case of `COc1ccccc1-c1noc2ncnc(Nc3cccc(C)c3C)c12`, the “hERG current change (%, negative = inhibition) at 10uM” value is reported as -4.27%.
`O=C(O)c1ccccc1OCC1CCCO1` (centres unmarked) was tested, and the “hERG current change (%, negative = inhibition) at 10uM” value was 20.8%.
In the case of `O=C(Nc1ccc(F)cc1F)c1ccc(-n2cncn2)nc1`, the “hERG current change (%, negative = inhibition) at 10uM” value is reported as -6.88%.
With `Cc1ccc(C(C)C)c(OC/C(O)=C(\C#N)c2nc3ccccc3[nH]2)c1` the “hERG current change (%, negative = inhibition) at 10uM” value was -15.7%.
With `CC1CCN(C(=O)C2CCCCN2S(=O)(=O)c2cccc([N+](=O)[O-])c2)CC1` (centres unmarked) the “hERG current change (%, negative = inhibition) at 10uM” value was 1.35%.
For `COc1ccc(S(=O)(=O)N(CC(=O)NC2CCCCC2)c2ccc(F)cc2)cc1`, the “hERG current change (%, negative = inhibition) at 10uM” value was 17.2%.
With `CCC(C)c1ccc(OCC(=O)Nc2ccc(Cl)cn2)cc1` (centres unmarked) the “hERG current change (%, negative = inhibition) at 10uM” value was -0.19%.
In the case of `CCn1cc(C(=O)NCc2ccco2)c(=O)c2cc(F)c(N3CCN(C(=O)c4ccco4)CC3)cc21`, the “hERG current change (%, negative = inhibition) at 10uM” value is reported as -26.4%.
`O=C(NC1CCN(C(=O)N2c3ccccc3Sc3ccccc32)CC1)c1ccccc1F` was tested, and the “hERG current change (%, negative = inhibition) at 10uM” value was 6.04%.
In the case of `CCCc1cc2c(cc1NC(=O)c1ccccc1F)OCO2`, the “hERG current change (%, negative = inhibition) at 10uM” value is reported as -11.3%.
In the case of `Cc1ccccc1NCc1ccc(O)c2ncccc12`, the “hERG current change (%, negative = inhibition) at 10uM” value is reported as 5.62%.
`CCOc1ccc(C(=O)NCc2ccco2)cc1OC` was tested, and the “hERG current change (%, negative = inhibition) at 10uM” value was 10.3%.
`Cc1nn(C)c(C)c1S(=O)(=O)N1CCCC(C(=O)N2CCN(c3ccc(Cl)cc3)CC2)C1` (centres unmarked) was tested, and the “hERG current change (%, negative = inhibition) at 10uM” value was -70.4%.
In the case of `CCc1ccccc1NC(=O)CCOc1ccccc1`, the “hERG current change (%, negative = inhibition) at 10uM” value is reported as 9.95%.
With `Cc1ccccc1OC(C)C(=O)NCCC1=CCCCC1` (centres unmarked) the “hERG current change (%, negative = inhibition) at 10uM” value was -1.85%.
For `NC(=O)N/N=C/c1cn(-c2ccccc2)nc1-c1ccccc1`, the “hERG current change (%, negative = inhibition) at 10uM” value was -6.63%.
With `CCC(=O)Nc1ccc2nc(C)n(Cc3ccccc3Cl)c(=O)c2c1` the “hERG current change (%, negative = inhibition) at 10uM” value was -0.491%.
In the case of `Cc1c(CCC(=O)O)c(=O)oc2cc3occ(C(C)(C)C)c3cc12`, the “hERG current change (%, negative = inhibition) at 10uM” value is reported as 0.152%.
In the case of `COc1ccc(N2CCN(C(=O)Cn3nnc(-c4ccccc4N)n3)CC2)cc1`, the “hERG current change (%, negative = inhibition) at 10uM” value is reported as -2.95%.
For `Cn1c(=O)c2c(ncn2CC(=O)OCC(=O)NC(c2ccccc2)c2ccccc2)n(C)c1=O`, the “hERG current change (%, negative = inhibition) at 10uM” value was -2.22%.
`CCOc1ccc2nc(COC(=O)c3ccncc3)c(C(=O)c3ccccc3)[n+]([O-])c2c1` was tested, and the “hERG current change (%, negative = inhibition) at 10uM” value was 2.8%.
`O=C(Cn1cnc([N+](=O)[O-])n1)N/N=C/c1ccc2ccccc2c1` was tested, and the “hERG current change (%, negative = inhibition) at 10uM” value was 13.3%.
`COc1cc(NC(=O)CCN2CCN(C)CC2)cc(OC)c1` was tested, and the “hERG current change (%, negative = inhibition) at 10uM” value was 14.4%.
In the case of `Cc1cc(=O)oc2cc(OCC(=O)NCc3ccco3)ccc12`, the “hERG current change (%, negative = inhibition) at 10uM” value is reported as -6.81%.
`Cl.NCCCCCC(=O)N/N=C/c1coc2ccccc2c1=O` was tested, and the “hERG current change (%, negative = inhibition) at 10uM” value was 5.41%.
In the case of `CC(NC(=O)CSc1nnc(-c2cc3cc(Cl)ccc3o2)n1C)c1ccccc1` (centres unmarked), the “hERG current change (%, negative = inhibition) at 10uM” value is reported as -12%.
`CC(C)CCNC(=O)c1ccc(C2SCC(=O)N2Cc2ccco2)cc1` (centres unmarked) was tested, and the “hERG current change (%, negative = inhibition) at 10uM” value was -20.4%.
For `O=C(COC(=O)c1ccc(O)cc1O)Nc1cc(-c2ccccc2)nn1-c1ccccc1`, the “hERG current change (%, negative = inhibition) at 10uM” value was -9.42%.
In the case of `COc1ccc2[nH]c(C)c(CN3CCC(C)CC3)c(=O)c2c1`, the “hERG current change (%, negative = inhibition) at 10uM” value is reported as -44%.
`O=C(c1ccc(Br)s1)N1CCN(c2ncccn2)CC1` was tested, and the “hERG current change (%, negative = inhibition) at 10uM” value was -20.3%.
In the case of `O=C(NCCc1ccccc1)C1(c2ccccc2)CC1(Cl)Cl` (centres unmarked), the “hERG current change (%, negative = inhibition) at 10uM” value is reported as 7.92%.
With `COc1cc(N=CC2=C(O)c3ccccc3C2=O)cc(OC)c1` the “hERG current change (%, negative = inhibition) at 10uM” value was 8.36%.
For `COc1ccc(C(=O)CSc2nnc(-c3ccco3)n2CC2CCCO2)cc1` (centres unmarked), the “hERG current change (%, negative = inhibition) at 10uM” value was -11.4%.
`COc1ccc(N(C(=O)Cn2nnc3ccccc32)C2(C(=O)NC3CCCC3)CCCCC2)cc1` was tested, and the “hERG current change (%, negative = inhibition) at 10uM” value was -36.9%.
In the case of `COc1cccc(CNC(=O)CCS(=O)(=O)Cc2ccc(C)cc2)c1`, the “hERG current change (%, negative = inhibition) at 10uM” value is reported as 27%.
With `COCCCNC(=O)Cn1ncc2c(=O)oc3ccccc3c21` the “hERG current change (%, negative = inhibition) at 10uM” value was 0.241%.
